Laboratory results taken from the supplement of paper PMC7125110.
± gives the standard error. Variants at the floor of the assay are shown more often than the library holds them.

B1: glmS ribozyme (parent)
chain: AUAAAAGCGCCAGAACUACAGAAAUGUAGUUGACGAGGAGGAGGUUUAUCGAAUUUUCGGCGGAUGCCUCCAAA

Key:
Conditions in all cases: with glucosamine-6-phosphate
glucosamine-6-phosphate [1] = variants of: B1; experiment: self-cleavage kobs at 640 uM GlcN6P; higher = faster cleavage; RNA array
Summary of the method: (§1)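 Sequenced MiSeq chips were the platform: E. coli RNA polymerase transcribed barcoded ribozyme variants on them in situ, and a hybridised Cy3 probe tracked these at 37 °C. After glucosamine-6-phosphate (40 μM to 10 mM) in HEPES/KCl/Mg(OAc)2 buffer was flowed in, tiles were imaged over ~14 h. Signals normalised to baseline and to non-cleaving reference variants were reduced to per-tile medians and fit to one- or two-exponential decays to obtain kobs. kcat and KM were derived through weighted Michaelis–Menten fits across concentrations.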

glucosamine-6-phosphate [2] = variants of: B1; experiment: self-cleavage kobs at 160 uM GlcN6P; higher = faster cleavage; RNA array
Summary of the method: as §1

glucosamine-6-phosphate [3] = variants of: B1; experiment: self-cleavage kobs at 2500 uM GlcN6P; higher = faster cleavage; RNA array
Summary of the method: as §1

glucosamine-6-phosphate [4] = variants of: B1; experiment: self-cleavage kobs at 10000 uM GlcN6P; higher = faster cleavage; RNA array
Summary of the method: as §1

Row | Variant | self-cleavage kobs at 640 uM GlcN6P (glucosamine-6-phosphate [1]) [s⁻¹] | self-cleavage kobs at 160 uM GlcN6P (glucosamine-6-phosphate [2]) [s⁻¹] | self-cleavage kobs at 2500 uM GlcN6P (glucosamine-6-phosphate [3]) [s⁻¹] | self-cleavage kobs at 10000 uM GlcN6P (glucosamine-6-phosphate [4]) [s⁻¹]
1 | AUAAAAGCGCCAGAACUACAGAAAUGUAGAUGACGAGGAGGAGGUUUAUCGAAUUUUCGGCGGAGGCCUCCAAA [U30A U65G] | 0.000275 ± 8.9e-05 | 6.8e-05 ± 2.4e-05 | 0.000614 ± 0.00016 | 0.00141 ± 0.00016
2 | AUAAAAGCGCCAGAACUACAGAAAUGUAGAUGACGAGCUGGAGGUUUAUCGAAUUUUCGGCGGAUGCCUCCAAA [U30A G38C A39U] | < 1e-05 |  |  | 
3 | AUAAAAGCGCCAGAACUACAGAAAUGUAGAUGACGAGGAGGAGGUUUAUCGAAUCUUCGGCGGAUGCGUCCAAA [U30A U55C C68G] | < 1e-05 |  | < 1e-05 | 
4 | AUAAAAGCGCCAGAACUACAGAAAUGUAGAUGACGAGGAGGAGGUUUAUCGAAUUUUCGGCUGAUGGCUCCAAA [U30A G62U C67G] | < 1e-05 |  |  | 
5 | AUAAAAGCGCCAGAACUACAGAAAUGUAGAUGACGAGGAGGAGGUUAAUCGAAUUUUCGUCGUAUGCCUCCAAA [U30A U47A G60U G63U] | < 1e-05 |  |  | 
6 | AUAAAAGCGCCAGAACUACAGAAAUGUAGCUGACGAGGAGGAGGUUUAUCGAAUUUUGGGCGGAUGCCUCCAAA [U30C C58G] | < 1e-05 |  |  | 
7 | AUAAAAGCGCCAGAACUACAGAAAUGUAGAUGAGGAGGAGGCGGUUUAUCGAAUUUUCGGCGGAUGCCUCCAAA [U30A C34G A42C] | < 1e-05 | < 1e-05 | < 1e-05 | 
8 | AUAAAAGCGCCAGAACUACAGAAAUGUAGCUGACGAGGAGGAGGUUUAUCGAAUUUUGGGCGGAUGCAUCCAAA [U30C C58G C68A] | 9.15e-05 ± 3.9e-05 |  | 7.09e-05 ± 1.9e-05 | 
9 | AUAAAAGCGCCAGAACUACAGAAAUGUAGAUGACGAGGAGGAGGUUUCUCGAAUUUUUCGCGGAUGCCUCCAAA [U30A A48C C58U G59C] | < 1e-05 |  |  | 
10 | AUAAAAGCGCCAGAACUACAGAAAUGUAUCUGACGAGGAGGAGGUUUAUCGGAUUUUCGGCGGAUGCCUCCAAA [G29U U30C A52G] | < 1e-05 |  | < 1e-05 | 
11 | AUAAAAGCGCCAGAACUACAGAAAUGUAGAUGACGAGGAGGAGGUCUAUCGAAUUUUCGGCGGCUGCCUCCAAA [U30A U46C A64C] | < 1e-05 |  |  | < 1e-05
12 | AUAAAAGCGCCAGAACUACAGAAAUGUAGCUGACGAGGAGGAGGUUUAUCGAAUUUUUGGCGGAUGCCUUCAAA [U30C C58U C70U] | 5.85e-05 ± 2.1e-05 |  | 3.95e-05 ± 1.9e-05 | 
13 | AUAAAAGCGCCAGAACUACAGAAAUGUAGAUGACGAGGAGGAGAUUUAUCUAAUUUUCGGCGGAUUCCUCCAAA [U30A G44A G51U G66U] | < 1e-05 |  |  | 
14 | AUAAAAGCGCCAGAACUACAGAAAUGUAUUUGACGAGCAGUAGGUUUAUCGAAUUUUCGGCGCAUGCCUGCAAA [G29U G38C G41U G63C C70G] | < 1e-05 |  | < 1e-05 | 
15 | AUAAAAGCGCCAGAACUACAGAAAUGUAGAUGACGAGGAGGAGGUUUAUCGAAUUUUCGGCGGAUGCCUCGAAA [U30A C71G] | 0.000371 ± 0.00016 |  | 0.000129 ± 5.8e-05 | 0.00032 ± 7.6e-05
16 | AUAAAAGCGCCAGAACUACAGAAAUGUAGCUGAUGAGGAGGAGGUUUAUCGAAUUUACGGCGGAUGCCUCCAAA [U30C C34U U57A] | < 1e-05 |  |  | 
17 | AUAAAAGCGCCAGAACUACAGAAAUGUAGCUGACGAGGAGGAGGUUUAUCGAAUUUUCGGCGGAUGCCUCUAAA [U30C C71U] | 9.35e-05 ± 1e-05 | 4.2e-05 ± 6.8e-06 | 0.000195 ± 1.6e-05 | 0.000307 ± 2.3e-05
18 | AUAAAAGCGCCAGAACUACAGAAAUGUAGCUGACGGGGAGGAGGAUUAUCGAAUUUUCGGCGGAUGCCUCCAAA [U30C A36G U45A] | < 1e-05 |  |  | 
19 | AUAAAAGCGCCAGAACUACAGAAAUGUAGCUGACGAGGAGGAGGUUUAUCGAAUUUUCGGCGGGUGCCUCCAAA [U30C A64G] | 0.000122 ± 1.4e-05 | 4.88e-05 ± 1.1e-05 | 0.000267 ± 3e-05 | 0.000293 ± 4.9e-05
20 | AUAAAAGCGCCAGAACUACAGAAAUGUAGAUGAAAAGGUGGAGGUUUAUCGAAUUUUCGGCGGAUGCCUCCAAA [U30A C34A G35A A39U] | < 1e-05 |  |  | 
